Source: PubChem BioAssay (NCATS)
Inconclusive means that the source gave no clear call. Such entries were picked first, then a sample of the others. Potencies of inconclusive entries are left out as doubtful fits. Calls of active or inactive are those of the source. The call rests on the fitted dose curve; in most records, active means well fitted inhibition curve with a large enough effect; inconclusive means small, poorly fitted or top-dose-only effect; inactive means no such curve, though single readings can be large or run the other way.
Potency means the concentration at half of the fitted maximal effect; tags describe the fitted curve by direction and shape.

Each compound was assayed against Rap guanine nucleotide exchange factor 3 (Homo sapiens) (UniProt O95398) (assay: Confirmatory qHTS for antagonist of cAMP-regulated guanine nucleotide exchange factor 3 (EPAC1) (AID 1645880; further: nearly all actives have a fitted effect of over 55% in size)). Settings: EPAC1 Rap1B-BODIPY-GDP exchange, fluorescence; activity, negative = inhibition: at 115 µM (top of the series).
Chain of UniProt O95398 (O95398 whole entry, looked up): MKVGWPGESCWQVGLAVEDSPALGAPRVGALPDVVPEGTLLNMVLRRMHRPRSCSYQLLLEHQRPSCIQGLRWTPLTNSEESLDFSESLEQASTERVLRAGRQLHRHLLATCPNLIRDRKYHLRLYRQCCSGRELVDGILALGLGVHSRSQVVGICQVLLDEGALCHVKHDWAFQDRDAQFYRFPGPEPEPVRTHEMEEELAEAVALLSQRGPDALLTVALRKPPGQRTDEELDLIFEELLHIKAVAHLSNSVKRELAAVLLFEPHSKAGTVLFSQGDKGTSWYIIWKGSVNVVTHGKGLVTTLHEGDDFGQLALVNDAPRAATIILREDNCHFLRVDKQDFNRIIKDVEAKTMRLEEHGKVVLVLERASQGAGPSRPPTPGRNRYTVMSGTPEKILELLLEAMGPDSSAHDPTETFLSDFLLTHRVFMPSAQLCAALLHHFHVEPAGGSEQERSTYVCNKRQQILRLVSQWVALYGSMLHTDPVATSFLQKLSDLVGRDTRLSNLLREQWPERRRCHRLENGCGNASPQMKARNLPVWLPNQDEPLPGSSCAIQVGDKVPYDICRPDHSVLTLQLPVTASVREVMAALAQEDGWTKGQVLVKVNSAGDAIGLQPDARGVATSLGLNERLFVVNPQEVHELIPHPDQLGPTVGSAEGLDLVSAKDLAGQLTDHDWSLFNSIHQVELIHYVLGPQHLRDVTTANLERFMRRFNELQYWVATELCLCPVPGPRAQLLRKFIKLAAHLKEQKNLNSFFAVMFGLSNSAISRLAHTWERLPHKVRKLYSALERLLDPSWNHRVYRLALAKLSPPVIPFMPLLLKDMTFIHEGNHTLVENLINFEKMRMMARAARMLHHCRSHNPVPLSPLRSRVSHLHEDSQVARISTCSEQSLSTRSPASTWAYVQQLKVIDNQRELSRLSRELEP
How it was run: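 Nucleotide exchange uses 100 nM EPAC1, 250 nM RAP1B-BODIPY-GDP and 50 uM GDP, with compounds in a concentration-titration series. After 5 min at room temperature, fluorescence (480 nm ex/540 nm em) is read every 5 min for 30 min. Data are normalized to control ATA and DMSO.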
COC(=O)c1ccccc1NC1=C/C(=N\S(=O)(=O)c2ccc(C(=O)O)cc2)c2ccccc2C1=O was tested, and the Potency was active: 22.4 µM.
With CC(C)CCNc1nc(-c2ccco2)c2c(c1C#N)CCCC2 the Potency was inconclusive [inhibitor, partial curve].
In the case of CCOc1ccc(C2C3=C(CCCC3=O)Nc3ccc4ncccc4c32)cc1 (stereo not given), the Potency is reported as inconclusive [inhibitor, partial curve, poor fit].
O=S1(=O)N=C(N(Cc2cccs2)c2ccc(O)cc2)c2ccccc21 was tested, and the Potency was inconclusive [inhibitor, partial curve].
With CO/N=C/c1ccc(Sc2ccccc2)c([N+](=O)[O-])c1 the “activity, negative = inhibition” value was inactive: -21.4%.
With CCOP(=O)(OCC)C(Cc1ccc(OC)c(OC)c1)N=C(c1ccccc1)c1ccccc1 (stereo not given) the Potency was inconclusive [inhibitor, partial curve, poor fit].
With O=C1CCCC2=C1C(c1ccc(O)c(O)c1)Nc1ccc3ccccc3c12 (stereo not given) the Potency was inconclusive [inhibitor, partial curve].
CC(C)(C)n1cnc2cc(NCc3ccccc3Cl)ccc21 was tested, and the Potency was active: 84.9 µM.
With O=c1c(Cl)c(Cl)cnn1Cc1nnc(-c2ccccc2Br)o1 the Potency was active: 42.6 µM.
CCn1c(=O)c2sccc2n2c(CCCC(=O)N3CCN(c4cc(C)ccc4C)CC3)nnc12 was tested, and the “activity, negative = inhibition” value was inactive: -35.8%.
O=C(COC(=O)c1ccc2c(c1)OCO2)NC1CCS(=O)(=O)C1 (stereo not given) was tested, and the “activity, negative = inhibition” value was inactive: -10.8%.
CCN(C(=O)c1noc2c1COc1ccc(C)cc1-2)c1cccc(C)c1 was tested, and the Potency was inconclusive [inhibitor, single point].
With CCCCCC(=O)Nc1cccc(C2=NOC3(C2)C[C@@H](C(N)=O)N(C(=O)CC(c2ccccc2)c2ccccc2)C3)c1 (stereo not given in full) the Potency was inconclusive [inhibitor, partial curve].
For Cc1cc2oc(=O)c(CC(=O)O)c(C)c2c2occ(-c3ccccc3)c12, the Potency was inconclusive [inhibitor, partial curve].
CCOc1cc(/C=N/NC(=O)c2ccc3c(c2)OCCO3)cc(Br)c1O was tested, and the Potency was active: 30.1 µM.
For COc1ccc(NC(=O)CN2CCN(c3c(C)cc(C)cc3C)CC2)cc1, the Potency was inconclusive [inhibitor, partial curve, poor fit].
In the case of COC(=O)C1=NN(c2ccccc2)C2(S1)SC(C(C)=O)=C(C)N2c1ccccc1 (stereo not given), the “activity, negative = inhibition” value is reported as inactive: -9.28%.
With COc1ccc2oc(=O)c(-c3nnc(NCc4ccco4)s3)cc2c1 the Potency was inconclusive [inhibitor, partial curve, poor fit].
In the case of O=C1C(=Cc2cn(-c3ccccc3)nc2-c2ccc(OCc3ccccc3)cc2)SC(=S)N1CCS(=O)(=O)O, the Potency is reported as active: 33.8 µM.
In the case of O=C1N(c2ccc(Cl)cc2)C(c2ccccc2)N2CCCN12 (stereo not given), the Potency is reported as inconclusive [inhibitor, partial curve].
CC(=O)c1c(C)[nH]c(C(=O)OCC(=O)c2ccc3c(c2)NC(=O)CO3)c1C was tested, and the Potency was inconclusive [inhibitor, partial curve].
For COc1ccc(C)cc1NC(=O)CSc1nc(=O)n(Cc2ccco2)c2c1CCC2, the Potency was active: 84.9 µM.
With CN(C)S(=O)(=O)c1ccc(N2CCCC2)c(C(=O)NCC2COc3ccccc3O2)c1 (stereo not given) the Potency was inconclusive [inhibitor, partial curve, poor fit].
Cn1c(=O)c2c(SCc3cccnc3)nc(CC(C)(C)C)nc2n(C)c1=O was tested, and the Potency was inconclusive [inhibitor, partial curve, poor fit].
Cc1ccc(-n2nc3ccc(NC(=O)/C=C/c4ccco4)cc3n2)cc1C was tested, and the Potency was inconclusive [inhibitor, full curve].
For COc1ccc(S(=O)(=O)N2CCCCC2)cc1NC(=O)c1c(F)cccc1Cl, the Potency was inconclusive [inhibitor, partial curve, poor fit].
In the case of COc1ccc(CCNC(=O)c2c(C)nn(-c3ccc(F)cc3)c2-n2cccc2)cc1OC, the “activity, negative = inhibition” value is reported as inactive: -15.3%.
CCOC(=O)C1CCCN(c2cc(=O)n(C3CCCCC3)c(=O)[nH]2)C1 (stereo not given) was tested, and the “activity, negative = inhibition” value was inactive: -2.08%.
CCCCOc1c(Br)cc(/C=N/O)cc1OCC was tested, and the Potency was inconclusive [inhibitor, partial curve].
With CC1(C(=O)NS(=O)(=O)c2cccs2)CCN1C(=O)C1(c2ccc(Cl)cc2)CCC1 (stereo not given) the Potency was active: 15.8 µM.
In the case of CC(NC(=O)/C(C#N)=C/c1ccc([N+](=O)[O-])o1)c1ccccc1 (stereo not given), the Potency is reported as inconclusive [inhibitor, partial curve].
For C=CCN1C(=O)[C@@H]2Cc3c([nH]c4ccccc34)C(c3ccc(O)cc3)N2C1=S (stereo not given in full), the Potency was inconclusive [inhibitor, partial curve, poor fit].
CCc1nc(Oc2cccc(F)c2)c2oc3ccccc3c2n1 was tested, and the Potency was inconclusive [inhibitor, single point].
With O=C(N/N=C/c1coc2ccc(Cl)cc2c1=O)c1cc(O)cc(O)c1 the Potency was inconclusive [inhibitor, partial curve].
For COc1ccc(C2=NN(c3ccccc3)C(c3cn(CCC(=O)O)nc3-c3ccccc3)C2)cc1 (stereo not given), the Potency was inconclusive [inhibitor, single point].
With CCOc1ccc(C(=O)N/N=C/c2cc(Cl)ccc2[N+](=O)[O-])cc1 the Potency was inconclusive [inhibitor, partial curve, poor fit].
With COc1cc(/C=N/NC(=O)c2ccc3c(c2)OCCO3)cc(Br)c1O the Potency was active: 42.6 µM.
O=C1C=C(NS(=O)(=O)c2ccccc2)C(=O)c2ccccc21 was tested, and the Potency was inconclusive [inhibitor, partial curve].
With Cc1ccc(C)c(Cn2nc(-c3cc(C)ccc3C)ccc2=O)c1 the Potency was inconclusive [inhibitor, partial curve, poor fit].
CCn1nc([N+](=O)[O-])c(C(C#N)c2nc3cc(C(F)(F)F)ccc3s2)c(Cl)c1=O (stereo not given) was tested, and the Potency was active: 12.6 µM.
